{
  "source": "PubChem BioAssay AID485281",
  "about": "(National Center for Advancing Translational Sciences (NCATS), 2010)",
  "note": "The whole screen tested about 350,000 compounds, of which about 260 (0.074%) were called active. This list was built around the results that the source calls inconclusive (neither active nor inactive); the mix of calls is not that of the screen. Calls follow the shape of the dose curve; as a rule, active = well fitted inhibition curve with a large enough effect; inconclusive = small, poorly fitted or top-dose-only effect; inactive = no such curve, though single readings can be large or run the other way. Potencies of inconclusive entries are doubtful fits and often do not repeat. Potency is read from the fitted curve at half-maximal effect; tags tell the direction and shape of the fitted curve.",
  "data": [
    {"biological_target": "Ferritin light chain (Equus caballus) (UniProt P02791)", "sequence (P02791 whole entry, looked up)": "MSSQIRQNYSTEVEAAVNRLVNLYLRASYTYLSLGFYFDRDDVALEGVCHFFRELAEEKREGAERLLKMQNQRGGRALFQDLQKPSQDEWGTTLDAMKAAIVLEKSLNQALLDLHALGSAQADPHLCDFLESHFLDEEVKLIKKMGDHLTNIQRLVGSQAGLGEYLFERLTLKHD", "experiment": "qHTS Assay for Identification of Novel General Anesthetics; also: nearly all actives have a fitted effect of over 20% in size", "settings": "apoferritin/1-aminoanthracene competitive binding, fluorescence; series mostly up to 77.5 µM", "in_short": "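In PBS, apoferritin at 10 uM is loaded with 1-AMA from a 50% saturated solution. After 10 min of compound exposure at ambient temperature, reduced 535 nm fluorescence indicates probe displacement.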", "values": [
      {"smiles": "CC(C)NCC(O)c1ccc(O)c(O)c1", "note": "(stereo unspecified)", "Potency": "inactive"},
      {"smiles": "O=C1C2CCCCC2C(=O)N1c1ccc(NC2CCN(Cc3ccccc3)CC2)c([N+](=O)[O-])c1", "note": "(stereo unspecified)", "Potency": "inconclusive: 3.55 µM [inhibitor, full curve]"},
      {"smiles": "CS(=O)(=O)N(CC(=O)NCCSCc1c(F)cccc1Cl)c1cccc([N+](=O)[O-])c1", "Potency": "inconclusive: 28.2 µM [inhibitor, partial curve]"},
      {"smiles": "CC(C)c1ccc2c(c1)NC(c1ccc(F)cc1)=NC(c1cccs1)=N2", "Potency": "inconclusive: 14.1 µM [inhibitor, partial curve]"},
      {"smiles": "O=C(CCc1nc2ccccc2c(=O)[nH]1)OCc1cccc(C(F)(F)F)c1", "Potency": "inconclusive: 39.8 µM [inhibitor, single point]"},
      {"smiles": "CC(C)COc1ccc(/C(=N/O)c2ccccc2)cc1", "Potency": "inconclusive: 25.1 µM [inhibitor, partial curve]"},
      {"smiles": "Cc1ccc(NC(=O)Nc2nnc(SCC(=O)N3CCCCC3)s2)cc1", "Potency": "inconclusive: 11.2 µM [inhibitor, partial curve]"},
      {"smiles": "Cc1ccc(C)n1-c1ccc(N2CCOCC2)cc1", "Potency": "inactive"},
      {"smiles": "Cc1cc(Nc2cccc(C(F)(F)F)c2)nc2ccc(NC(=O)Cc3ccc(Cl)cc3)cc12", "Potency": "inactive"},
      {"smiles": "COc1ccc2c(c1)c(C(O)CN1CCC(Cc3ccccc3)CC1)c(C)n2C", "note": "(stereo unspecified)", "Potency": "inconclusive: 39.8 µM [inhibitor, partial curve]"},
      {"smiles": "CCn1c(CNc2ccc(Cl)cc2)nnc1SCC(=O)OC1CCCCC1", "Potency": "inconclusive: 50.1 µM [inhibitor, single point]"},
      {"smiles": "Cc1ccccc1NC(=O)N1c2ccccc2CC1C", "note": "(stereo unspecified)", "Potency": "inconclusive: 28.2 µM [inhibitor, partial curve]"},
      {"smiles": "Cc1cc(=O)n(Cc2cccc(Cl)c2)c2c1c(C)nn2C", "Potency": "inactive"},
      {"smiles": "Cc1cc(Cl)cc(C)c1OCCCCCn1ccnc1", "Potency": "inconclusive: 44.7 µM [inhibitor, single point]"},
      {"smiles": "CC(C)(C)NC(=O)[C@@H]1C[C@@H]2CCCC[C@@H]2CN1C[C@@H](O)[C@H](Cc1ccccc1)NC(=O)[C@H](CC(N)=O)NC(=O)c1ccc2ccccc2n1", "Potency": "inconclusive: 31.6 µM [inhibitor, partial curve]"},
      {"smiles": "N#CCC(=O)Nc1ccc(C(=O)OCC(=O)Nc2cccc(C(F)(F)F)c2)cc1", "Potency": "inconclusive: 31.6 µM [inhibitor, partial curve]"},
      {"smiles": "Nc1ccc(Nc2nc(-c3cc4ccccc4oc3=O)cs2)cc1", "Potency": "inconclusive: 17.8 µM [inhibitor, partial curve]"},
      {"smiles": "COc1ccc(NC(=O)COC(=O)c2c3c(nc4ccccc24)CCCC3)cc1Cl", "Potency": "inconclusive: 35.5 µM [inhibitor, single point]"},
      {"smiles": "COc1ccc(N(C(=O)c2ccco2)S(=O)(=O)c2cccc([N+](=O)[O-])c2)cc1", "Potency": "inconclusive: 11.2 µM [inhibitor, single point]"},
      {"smiles": "O=C(COc1ccc(F)cc1)NCC(c1ccc(Cl)cc1)N1CCCCC1", "note": "(stereo unspecified)", "Potency": "inactive"},
      {"smiles": "Cc1noc(NS(=O)(=O)c2ccc(N/C=C/C(=O)c3ccc4c(c3)OCO4)cc2)c1C", "Potency": "inconclusive: 28.2 µM [inhibitor, single point]"},
      {"smiles": "CC1CCCC(NC(=O)CCNS(=O)(=O)c2ccc(Br)cc2)C1C", "note": "(stereo unspecified)", "Potency": "inconclusive: 25.1 µM [inhibitor, partial curve]"},
      {"smiles": "COc1ccc(CNC(=O)CSc2ncc3c(n2)-c2ccc(Cl)cc2N(Cc2ccc(F)cc2)S3(=O)=O)cc1OC", "Potency": "inconclusive: 28.2 µM [inhibitor, partial curve]"},
      {"smiles": "Cc1ccc(S(=O)(=O)Nc2cc(C(C)C)c(O)cc2C)cc1", "Potency": "inconclusive: 3.98 µM [inhibitor, full curve]"},
      {"smiles": "Cc1ccc(-c2nnc(SCC(=O)N3CCOCC3)nc2-c2ccc(C)cc2)cc1", "Potency": "inconclusive: 31.6 µM [inhibitor, partial curve]"},
      {"smiles": "Cc1ccc(Cn2c(CNC(=O)CCc3ccccc3)nc3cccnc32)cc1", "Potency": "inconclusive: 50.1 µM [inhibitor, single point]"},
      {"smiles": "CC(=O)c1cccc(NC(=S)NC(=O)Cc2ccccc2)c1", "Potency": "inconclusive: 20 µM [inhibitor, partial curve]"},
      {"smiles": "O=C(CCNC(=O)N1CC(=O)Nc2ccccc21)Nc1ccc(Br)cc1F", "Potency": "inactive"},
      {"smiles": "O=C(Cn1nc(-c2ccccc2)ccc1=O)NCCN1CCN(Cc2ccccc2)CC1", "Potency": "inconclusive: 28.2 µM [inhibitor, partial curve]"},
      {"smiles": "CCOC(=O)C(=O)N(Nc1ccc(C)cc1)c1ccc(C)cc1", "Potency": "inconclusive: 28.2 µM [inhibitor, single point]"},
      {"smiles": "CC12CCC(C(=O)OC3CCCCC3)(OC1=O)C2(C)C", "note": "(stereo unspecified)", "Potency": "inconclusive: 35.5 µM [inhibitor, single point]"},
      {"smiles": "COc1ccccc1-c1ccc(SCc2cccc(C)c2)nn1", "Potency": "inconclusive: 39.8 µM [inhibitor, single point]"},
      {"smiles": "O=C(N/N=C/C=C/c1ccccc1)c1ccccc1Br", "Potency": "inconclusive: 31.6 µM [inhibitor, partial curve]"},
      {"smiles": "CCC(NC(=O)c1cccc(Cn2cc([N+](=O)[O-])cn2)c1)c1ccc(C(C)C)cc1", "note": "(stereo unspecified)", "Potency": "inconclusive: 35.5 µM [inhibitor, partial curve]"},
      {"smiles": "CCN(CC)c1nc2ccccc2nc1-n1nc(C)cc1C", "Potency": "inconclusive: 39.8 µM [inhibitor, single point]"},
      {"smiles": "Cc1ccc(CNc2ccc(Cl)cc2[N+](=O)[O-])cc1", "Potency": "inconclusive: 15.8 µM [inhibitor, partial curve]"},
      {"smiles": "COc1ccc(-c2nc(NC(=O)c3[nH]c(C)c(C(C)=O)c3C)sc2C)cc1", "Potency": "inactive"},
      {"smiles": "Cc1ccc(Sc2c(C)nn(C(=O)c3ccc(Cl)cc3)c2C)cc1", "Potency": "inconclusive: 17.8 µM [inhibitor, partial curve]"},
      {"smiles": "C=CCCCCCCCCCCCC(O)CC(O)COC(C)=O", "note": "(stereo unspecified) (tested in a mixture with another compound)", "Potency": "inconclusive: 28.2 µM [inhibitor, single point]"},
      {"smiles": "O=C(NCc1ccccc1)c1cccc(Br)n1", "Potency": "inconclusive: 35.5 µM [inhibitor, single point]"},
      {"smiles": "O=[N+]([O-])c1ccc(CNC2CCCc3ccccc32)cc1", "note": "(stereo unspecified)", "Potency": "inconclusive: 25.1 µM [inhibitor, partial curve]"}
    ]}
  ]
}
